{
  "source": "paper PMC4170211",
  "binders": {"B1": {"name": "SMC3 fragment recovered from the Nde1 yeast two-hybrid screen (domain or fragment, UniProt Q9CW03 746-903)", "chain": "RQQSEKTFMPKQRSLQSLEASLHAMESTRESLKAELGTDLLSQLSLEDQKRVDALNDEIRQLQQENRQLLNERIKLEGIITRVETYLNENLRKRLDQVEQELNELRETEGGTVLTATTSELEAINKRVKDTMARSEDLDNSIDKTEAGIKELQKSMER"}, "B2": {"name": "RAD21, endogenous (protein, UniProt O60216 1-631)", "chain": "MFYAHFVLSKRGPLAKIWLAAHWDKKLTKAHVFECNLESSVESIISPKVKMALRTSGHLLLGVVRIYHRKAKYLLADCNEAFIKIKMAFRPGVVDLPEENREAAYNAITLPEEFHDFDQPLPDLDDIDVAQQFSLNQSRVEEITMREEVGNISILQENDFGDFGMDDREIMREGSAFEDDDMLVSTTTSNLLLESEQSTSNLNEKINHLEYEDQYKDDNFGEGNDGGILDDKLISNNDGGIFDDPPALSEAGVMLPEQPAHDDMDEDDNVSMGGPDSPDSVDPVEPMPTMTDQTTLVPNEEEAFALEPIDITVKETKAKRKRKLIVDSVKELDSKTIRAQLSDYSDIVTTLDLAPPTKKLMMWKETGGVEKLFSLPAQPLWNNRLLKLFTRCLTPLVPEDLRKRRKGGEADNLDEFLKEFENPEVPREDQQQQHQQRDVIDEPIIEEPSRLQESVMEASRTNIDESAMPPPPPQGVKRKAGQIDPEPVMPPQQVEQMEIPPVELPPEEPPNICQLIPELELLPEKEKEKEKEKEDDEEEEDEDASGGDQDQEERRWNKRTQQMLHGLQRALAKTGAESISLLELCRNTNRKQAAAKFYSFLVLKKQQAIELTQEEPYSDIIATPGPRFHII"}, "B3": {"name": "GFP-Nde1 (protein, UniProt Q9CZA6 1-344)", "chain": "MEDSGKTFESEEEETNYWRDLAMTYKQRAENTQEELREFQEGSREYEAELEAQLQQIETRNRDLLSENNRLRMELESVKEKFEMQHSEGYRQISALEDDLAQTKAIKDQLQKYIRELEQANDDLERAKRATIMSLEDFEQRLNQAIERNAFLESELDEKENLLESVQRLKDEARDLRQELAVQQKQDKPRTPMPGSGQAKRTDMAVQATGSVPSTPVAHRGPSSGLNTPGMFRRGLDSSTSGTPLTPAARISALNIVGDLLRKVGALESKLASCRNFMYDQSPSRTSGPASGRGTKNRDGVDRRPGSTSVGDKGSGKRLEFGKPASEPASPALPSAQGVVKLLL"}},
  "key": {"[1]": {"target": "T1, Nde1 (bait of the yeast two-hybrid screen) (mouse) (UniProt Q9CZA6)", "T1 sequence": "B3 chain", "experiment": "two-hybrid; yeast two-hybrid screen with Nde1 as bait"}, "[2]": {"target": "T2, Myc-Nde1 (mouse) (UniProt Q9CZA6)", "T2 sequence": "B3 chain", "experiment": "co-IP; Myc-Nde1 transfected in 293T, immunoprecipitated by anti-myc 9E10 (mouse IgG as control), endogenous partners by immunoblotting; 25 mM HEPES, 150 mM NaCl, 10 mM NaF, 100 uM Na3VO4, 0.5% NP40, 10% glycerol, protease inhibitors, 1 mM ATP"}, "[3]": {"target": "T3, Flag-NBD of SMC3 (Nde1 binding domain of Smc3) (UniProt Q9CW03)", "T3 sequence": "B1 chain", "experiment": "co-IP; Flag-NBD of SMC3 co-transfected with GFP-Nde1 in 293T, immunoprecipitated by the Flag antibody (mouse IgG as control), immunoblotting; 25 mM HEPES, 150 mM NaCl, 10 mM NaF, 100 uM Na3VO4, 0.5% NP40, 10% glycerol, protease inhibitors, 1 mM ATP"}},
  "note": "These are yes or no findings as the source states them, for the method shown. For part of these data: Binding seen in cells or lysates may run through a third protein. Some binding calls cover weakened binding; strength is not graded here. For part of these data: Where a sequence is shown, tags or fusion partners need not be part of it.",
  "data": [
    {"binder": "B1", "values": [
      {"measurement": "binding", "setting": "[1]", "result": "binds"}
    ]},
    {"binder": "B2", "values": [
      {"measurement": "binding", "setting": "[2]", "result": "binds"}
    ]},
    {"binder": "B3", "values": [
      {"measurement": "binding", "setting": "[3]", "result": "binds"}
    ]}
  ]
}
